# Laboratory results reported in article PMC10429771, “Bioorthogonal activation of prodrugs, for the potential treatment of breast cancer, using the Staudinger reaction” (RSC Medicinal Chemistry, 2023).
# Assay: HPLC release study (Staudinger activation by 9-azido sialic acid 4)
# Conditions: prodrug 50 μM + 9-azido sialic acid 4 100 μM, CH3CN/H2O (1:1), 37 °C, monitored for 30 hours
row,Compound,time to full disappearance of prodrug HPLC signal [h]
1,"O=C(Nc1ccc(N(CCCl)CCCl)cc1)c1ccccc1P(c1ccccc1)c1ccccc1 [N-mustard prodrug 10, N-(4-(Bis(2-chloroethyl)amino)phenyl)-2-(diphenylphosphaneyl)benzamide]",24
2,"COc1cccc2c1C(=O)c1c(O)c3c(c(O)c1C2=O)C[C@@](O)(C(=O)CO)C[C@@H]3OC1C[C@@H](NC(=O)c2ccccc2P(c2ccccc2)c2ccccc2)[C@@H](O)[C@@H](C)O1 (stereo partly drawn) [Dox-prodrug 12, 2-(Diphenylphosphino)-N-((2R,3R,4R)-3-hydroxy-2-methyl-6-(((1S,3S)-3,5,12-trihydroxy-3-(2-hydroxyacetyl)-10-methoxy-6,11-dioxo-1,2,3,4,6,11-hexahydrotetracen-1-yl)oxy)tetrahydro-2H-pyran-4-yl)benzamide]",24
